Test results as given in PubChem BioAssay AID686978 (National Center for Advancing Translational Sciences (NCATS), 2013).
The campaign covered roughly 420,000 compounds. About 64,000 (15%) were called active. The inconclusive results got no clear call from the source; some entries with a clear call stand among them for comparison. The call rests on the fitted dose curve; in most records, active means well fitted inhibition curve with a large enough effect; inconclusive means small, poorly fitted or top-dose-only effect; inactive means flat fitted curve, though single readings scatter. No potency is given beside an inconclusive call; the fits are too rough.
On the % scale 0 is the no-effect control and ±100 the full control effect; potency means the concentration at half of the fitted maximal effect; tags describe the fitted curve by direction and shape.

Assay: qHTS for Inhibitors of human tyrosyl-DNA phosphodiesterase 1 (TDP1): qHTS in cells in absence of CPT; further: nearly all actives have a fitted effect of over 55% in size
Settings: DT40 Tdp1-/- hTDP1 cells, no CPT, ATP luminescence, 48 h; activity change, negative = growth inhibition: at 46.2 µM (top of the series) unless noted
Method in brief: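 Compound effects on proliferation are scored in DT40 Tdp1-/-;hTDP1 cells in the absence of CPT. ATP levels (CellTiter-Glo luminescence) are recorded after a ≥48 hr, 37 °C incubation.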
With `COc1ccc(Br)cc1CN1CCSCC1` the Potency was inconclusive [inhibitor, full curve, poor fit]. For `C=CCN=C1S/C(=C/c2cccc([N+](=O)[O-])c2)C(=O)N1CC=C`, the Potency was inconclusive [inhibitor, single point]. For `CN(Cc1cn[nH]c1-c1ccc(-c2ccccc2)cc1)CC1CCOCC1`, the Potency was inconclusive [inhibitor, single point]. In the case of `CCCCN1C(=O)C(=O)NC[C@@H]1C(C)CC` (stereo partly specified), the Potency is reported as “inactive”. For `CN1CCN(S(=O)(=O)c2ccc(N3CCN(c4ccc(O)cc4)CC3)c([N+](=O)[O-])c2)CC1`, the Potency was inconclusive [inhibitor, single point]. With `O=C(Nc1cc(S(=O)(=O)Nc2ccccc2Cl)ccc1O)c1ccc(F)cc1F` the Potency was “inactive”. With `COc1ccc2c(c1)O[C@@H]1c3ccc(OC)cc3OCC21` (stereo partly specified) the Potency was “inactive”. With `CCN(CC)CCn1c(C)nc2ccccc21` the Potency was “inactive”. For `CCC(=O)N(CCc1ccccc1)Cc1cc2ccc(OC)cc2[nH]c1=O`, the Potency was inconclusive [inhibitor, single point]. For `Cc1ccc2oc(C(=O)N(Cc3ccncc3)CC3CCCO3)c(C)c2c1` (stereo unspecified), the Potency was inconclusive [inhibitor, single point]. For `Cc1ccc(NC(=S)Nc2ccc(F)cc2)cc1`, the Potency was inconclusive [inhibitor, partial curve]. In the case of `CN(C)/C=C(/C(=O)c1ccccc1)n1cncn1`, the Potency is reported as “inactive”. For `CCn1cc(C(=O)N2CCN(c3ccc([N+](=O)[O-])cc3)CC2)c(=O)c2ccc(C)nc21`, the Potency was inconclusive [inhibitor, single point]. For `O=C1CSC(=S)N1/N=C/c1cccc(C(F)(F)F)c1`, the Potency was “inactive”. In the case of `Cc1cc(C)c2nc(-c3cccc(Cl)c3)c(C)c(C(=O)N3CCOCC3)c2c1`, the Potency is reported as inconclusive [inhibitor, single point]. For `CCCC/C=C/C(NC(=O)CCc1ccccc1)c1ccccc1` (stereo unspecified), the Potency was inconclusive [inhibitor, single point]. In the case of `Cc1c(C(=O)O)cccc1-n1c(C)cc(/C=N/Nc2ccc([N+](=O)[O-])cn2)c1C`, the Potency is reported as “inactive”. In the case of `CCC1(C)Cc2c(sc3nc(SC)[nH]c(=S)c23)CO1` (stereo unspecified), the Potency is reported as inconclusive [inhibitor, single point]. In the case of `O=C(O)/C=C/C(=O)Nc1ccc(N2CCOCC2)nc1N1CCOCC1`, the Potency is reported as active: 23.1 µM. In the case of `COc1ccc(NC(=O)CN(C)C(=O)CNC(=O)Cc2cccc3ccccc23)cc1`, the Potency is reported as “inactive”. In the case of `CN(C)CCN(C(=O)c1ccc(S(=O)(=O)N(C)c2ccccc2)cc1)c1nc2cc3c(cc2s1)OCCO3`, the activity change, negative = growth inhibition is reported as inconclusive: -32.2% [inhibitor]. With `CCCCC1CCC(C(=O)N(CCC(C)C)c2c(N)n(CCCC)c(=O)[nH]c2=O)CC1` (stereo unspecified) the Potency was inconclusive [inhibitor, single point]. In the case of `NC(=O)c1ccsc1NC(=O)COC(=O)C1CCCN1C(=O)c1cccs1` (stereo unspecified), the Potency is reported as inconclusive [inhibitor, single point]. For `Cc1c(C(=O)OCCOc2ccccc2)[nH]c2c1C(=O)CC(c1ccccc1)C2` (stereo unspecified), the Potency was active: 0.146 µM. For `O=C(Nc1ccc2nc(SCC(=O)N3CCOCC3)sc2c1)c1cccc(Cl)c1`, the Potency was active: 18.4 µM. In the case of `COc1ccc(NC(=O)c2cc3c(Cl)nc4ccccc4c3s2)c(OC)c1`, the Potency is reported as inconclusive [inhibitor, single point]. In the case of `NC(=O)c1sc2nc3c(c(-c4ccco4)c2c1N)CCCC3`, the Potency is reported as active: 16.4 µM. For `COc1cc(C(=O)Nc2cccc(NC(=O)c3ccccc3)c2)cc(OC)c1OC`, the Potency was “inactive”. For `CC1CCc2nc3ccc(S(=O)(=O)N4CCC(C(=O)NC(C)c5ccccc5)CC4)cc3c(C(=O)O)c2C1` (stereo unspecified), the Potency was “inactive”. In the case of `CCOC(=O)c1c(C)[nH]c(C(=O)NNC(=O)c2ccc(Br)cc2)c1C`, the Potency is reported as inconclusive [inhibitor, single point]. For `Cc1noc(C(=O)N2CCN(Cc3ccc4c(c3)OCO4)CC2)c1Cl`, the Potency was inconclusive [inhibitor, single point]. In the case of `COc1ccc(NC(=O)Cn2c(=O)n(CCC(=O)NCc3ccccc3OC)c(=O)c3ccccc32)cc1Cl`, the Potency is reported as inconclusive [inhibitor, full curve]. In the case of `O=C(CCN1C(=O)C2C3C=CC(C3)C2C1=O)NCCc1ccccc1` (stereo unspecified), the Potency is reported as active: 25.9 µM. With `C/C(Cn1nc([N+](=O)[O-])cc1C)=N\NC(=O)COc1c(Cl)cc(Cl)cc1Cl` the Potency was inconclusive [inhibitor, single point]. For `CCOc1cc(Cl)c(S(=O)(=O)NCCCn2ccnc2)cc1Cl`, the Potency was active: 16.4 µM. For `C/C(=N\Nc1cc(-c2ccccc2)nc(-c2ccccc2)n1)c1ccc(O)c(C)c1`, the Potency was inconclusive [inhibitor, single point]. With `COc1ccc(NC(=O)C2CCCN(S(C)(=O)=O)C2)cc1` (stereo unspecified) the Potency was “inactive”. With `Cc1nc2c(-c3ccccc3)c(C)nn2c(C)c1CCC(=O)N1CCN(c2ccc(F)cc2)CC1` the Potency was inconclusive [inhibitor, single point]. In the case of `O=C(Nc1ccc(S(=O)(=O)N2CCN(Cc3ccccc3)CC2)cc1)c1cnccn1`, the Potency is reported as active: 5.17 µM. With `CCC(C)NC(=O)c1ccc2nc(-c3ccco3)c(-c3ccco3)nc2c1` (stereo unspecified) the Potency was active: 12.6 µM. With `Cc1c(Cl)cccc1NC(=O)COCc1cc(-c2ccc3c(c2)OCO3)on1` the Potency was inconclusive [inhibitor, single point]. For `Cn1cnnc1SCC(=O)Nc1sc2c(c1C#N)CCCCC2`, the Potency was inconclusive [inhibitor, single point]. With `COc1ccccc1N1CCN(C(=O)CNC(=O)Cn2cnc3sc(C)c(C)c3c2=O)CC1` the Potency was inconclusive [inhibitor, partial curve, poor fit]. For `Cc1cc(F)ccc1S(=O)(=O)NCC(c1ccc2c(c1)OCO2)N1CCOCC1` (stereo unspecified), the Potency was “inactive”. With `CN(C)Cc1ccccc1-c1cncnc1NCc1cccnc1` the Potency was inconclusive [inhibitor, partial curve, poor fit]. For `CCC(=O)c1ccc(OCC(O)CN2C(=O)NC(C)(C)C2=O)cc1` (stereo unspecified), the Potency was “inactive”. In the case of `O=S(=O)(c1ccc(Cl)cc1)N1CCN(c2nc(C(F)(F)F)nc3ccccc23)CC1`, the Potency is reported as inconclusive [inhibitor, single point]. With `COCC(=O)N1CCC(Oc2ccc(C(=O)N3CCN(C)C[C@@H]3C(C)C)cc2)CC1` the Potency was “inactive”. In the case of `CC(=O)N1CCC2(CCCN(c3ccncc3)C2)CC1`, the Potency is reported as “inactive”. For `CC(C)(C)NC(=O)NC(=O)COC(=O)c1cc(=O)[nH]c2ccccc12`, the Potency was “inactive”. For `Cc1ccc(NC(=O)CSc2nnc(CNC(=O)C34CC5CC(CC(C5)C3)C4)n2-c2ccc(F)cc2)cc1`, the Potency was inconclusive [inhibitor, single point]. For `O=c1c2ccccc2c(C=Nc2ccc(O)cc2)c(O)n1Cc1ccccc1`, the Potency was “inactive”. For `O=C(NCc1ccc2c(c1)OCO2)c1ccc(COc2cc(Cl)ccc2Cl)o1`, the Potency was “inactive”. In the case of `CN(C)c1ccc(-c2n(C)c3ccccc3[n+]2C)cc1`, the Potency is reported as active: 0.82 µM. For `CCN(Cc1cccc(S(=O)(=O)O)c1)c1ccc(C(=C2C=CC(=[N+](CC)Cc3cccc(S(=O)(=O)O)c3)C=C2)c2ccc(O)cc2S(=O)(=O)O)cc1`, the Potency was “inactive”. With `Fc1ccccc1N1CCN(C(c2cccs2)c2nnnn2CCc2ccccc2)CC1` (stereo unspecified) the Potency was inconclusive [inhibitor, single point]. For `CCN(C(=O)c1ccc(S(=O)(=O)N2CCCC2)cc1)C1CCS(=O)(=O)C1` (stereo unspecified), the Potency was “inactive”. For `Cc1ccc(S(=O)(=O)NC2CC(=O)N(c3ccc4c(c3)OCCO4)C2)cc1` (stereo unspecified), the Potency was inconclusive [inhibitor, partial curve]. With `Cc1ccc(NC(=O)CN2C(=O)NC(C)(c3ccc(Cl)cc3)C2=O)cc1S(=O)(=O)N1CCOCC1` (stereo unspecified) the Potency was active: 18.4 µM. In the case of `COc1ccc(OC)c(CN2C(=O)CCC2(C)c2nnnn2Cc2ccccc2)c1` (stereo unspecified), the Potency is reported as inconclusive [inhibitor, partial curve]. In the case of `O=c1[nH]cccc1-c1nc2ccccc2n1Cc1ccc(F)cc1`, the Potency is reported as “inactive”. For `O=C(Nc1ccc(Cl)cc1)C1Cc2c(-c3ccccc3Oc3ccccc3)ccnc2O1` (stereo unspecified), the Potency was inconclusive [inhibitor, single point]. With `COC(=O)c1c(NC(=O)CN2CCN(c3ccccc3Cl)CC2)sc(C)c1C` the Potency was inconclusive [inhibitor, single point]. With `CC1CN(C(=O)c2cc(S(=O)(=O)N3CCCCC3)ccc2Cl)CC(C)O1` (stereo unspecified) the Potency was active: 11.6 µM. For `Fc1cccc(Cc2c(C3CCCCC3)nc3ccc(Cl)cn23)c1`, the Potency was inconclusive [inhibitor, single point]. For `COc1ccccc1CCn1c(=O)c(-c2cccc(Cl)c2)nc2cncnc21`, the Potency was inconclusive [inhibitor, single point]. With `CCOc1ccc(CCN2C(=S)N([C@@H](Cc3ccc(O)cc3)CN3CCC[C@@H]3CN3C(=S)NC[C@@H]3Cc3ccccc3)C[C@@H]2Cc2ccc(O)cc2)cc1` the Potency was active: 4.11 µM. In the case of `O=C(NCc1cccnc1)c1ccc(COc2ccc(Cl)cc2)cc1`, the Potency is reported as active: 10.3 µM. For `COc1cc(OC)c2nc(-c3cc4c(c(OC)c3)OCCN(C(=O)C(C)c3n[nH]c(=O)c5ccccc35)C4)cc(C)c2c1` (stereo unspecified), the Potency was “inactive”. With `Cc1cc(NC(=O)CCC(=O)N(CCC(C)C)C(C(=O)NCC2CCCO2)c2ccccc2C)no1` (stereo unspecified) the Potency was inconclusive [inhibitor, single point]. In the case of `Oc1ccccc1/C=N/Nc1ccnc(SCc2ccccc2)n1`, the Potency is reported as active: 0.082 µM.
